In experiment [1] the target is T1, CMV gp116 epitope AD2 site peptide SHRANETIYNTTLKYGDTTGTNTTK (CMV (human cytomegalovirus), not fully specified).
T1 construct: Synthetic polypeptide corresponding to the AD2 site of gp116 (glycoprotein B); A biotinylated form was used to select B cells; also called CMV gp116 AD2 peptide
T1 peptide: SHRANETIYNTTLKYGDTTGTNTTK
As to the kind of experiment: kinetic affinity measurement, method not stated; antigen taken as CMV gp116 AD2 peptide.

Experiment [2] addresses T1, CMV gp116 epitope AD2 site peptide …. The experiment can be described thus: kinetic affinity measurement, method not stated; antigen taken as AD2 peptide; same value as r10, table re-sorted by koff.
For experiment [3] the target is unchanged. The experiment can be described thus: kinetic affinity measurement, method not stated; antigen taken as AD2 peptide; same value as r11, table re-sorted by koff.

B1: 9C16 human anti-CMV antibody (antibody, human IgG1, kappa)
heavy: QVQLVDSGGGVVQPGRSLRLSCAASGLTFSDYGMHWVRQAPGKGLEWVAVISKDGTNTHYADSVRGRFTISRDNSKNIFYLQMNGLRAEDTAVYYSGRDGKCPDLKCYSGLIDYWGQGTLVTVSSASTKGPSVFPLAPSSKSTSGGTAALGCLVKDYFPEPVTVSWNSGALTSGVHTFPAVLQSSGLYSLSSVVTVPSSSLGTQTYICNVNHKPSNTKVDKRV[human IgG1 Fc left out]
light: EIVLTQSPATLSLSPGERATLSCRASQSVGGYLAWYQQKPGQAPRLLIYDASKRATGIPARFSGSGSGTDFTLTISTLEPEDFAIYYCHQRSSWPPLTFGGGTKVDIKRTVAAPSVFIFPPSDEQLKSGTASVVCLLNNFYPREAKVQWKVDNALQSGNSQESVTEQDSKDSTYSLSSTLTLSKADYEKHKVYACEVTHQGLSSPVTKSFNRGEC
notes: Recombinant human IgG, gamma heavy and kappa light chain; also called mAb F-9C16
As to B1, in experiment [1], the Kd – broadly, a measure of binding affinity in units of concentration – stood at 4.9 nM; the koff (commonly a measure of how fast the partners let go of each other) stood at 0.00286 s⁻¹; the kon (in general, the rate constant with which the complex forms) was 583000 M⁻¹ s⁻¹. In experiment [2], the equilibrium dissociation constant (Kd) amounted to 4.9 nM, the koff was determined as 0.00286 s⁻¹ and the kon came to 583000 M⁻¹ s⁻¹.

B2: 2M16 human anti-CMV antibody (antibody)
heavy: QVQLVDSGGGMVQPGRSLRLSCSASGLTFSNYGMHWVRQAPGKGLEWVAVISSDGSNEHYADSVKGRFTISRDNFNNMLYLQMNSLRAEDTAVYYSARDGRCPDVNCYSGLIDYWGQGTLVTVSSASTKGPSVFPLAPSSKSTSGGTAALGCLVKDYFPEPVTVSWNSGALTSGVHTFPAVLQSSGLYSLSSVVTVPSSSLGTQTYICNVNHKPSNTKVDKRV[human IgG1 Fc left out]
light: EIVLTQSPATLSLSPGERATLSCRASQSVGRYLAWYQQKGGQAPRLLIYDASNRATGIPARFSGSGSGTDFTLTIDSLEPEDFAVYYCQQRSNWPPLTFGGGSKVEIKRTVAAPSVFIFPPSDEQLKSGTASVVCLLNNFYPREAKVQWKVDNALQSGNSQESVTEQDSKDSTYSLSSTLTLSKADYEKHKVYACEVTHQGLSSPVTKSFNRGEC
notes: Recombinant human IgG, gamma heavy and kappa light chain; also called mAb B-2M16
In experiment [3], B2 had a Kd of 8.47 nM, a koff of 0.023 s⁻¹ and a kon of 2.7e+06 M⁻¹ s⁻¹. In addition, in experiment [1], the Kd is 8.47 nM and the koff came out at 0.023 s⁻¹.
